Assay results reported in the supplement of paper PMC10126150.
Values marked as one replicate rest on one cluster of the flow cell; about a third of the high ones do not repeat.

System: ATP
Assay: switch fluorescence ratio, 500 uM ATP over buffer (Cy3 cluster intensity, sum of 5 cycles each) (fold (ratio)); higher = stronger signal-on switching upon ATP binding; sequences stand for … in TCGTCGGCAGCGTCAGATGTGTATAAGAGACAGTTTTTTTTTTTTTTTTTTTTTTTTT…TC
Conditions: aptamer strand: ATP DNA aptamer (quencher-CACCTGGGGGAGTATTGCGGAGGAAGG + anchor), 100 nM annealed; ATP concentration: 500 uM; one replicate
Outline: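 Switching-strand clusters labelled with Cy3 on a modified Illumina MiSeq flow-cell were annealed to 100 nM quencher-labelled ATP aptamer, imaged in selection buffer, and re-imaged after 15 min with 500 uM ATP at 22 °C. This was done over five cycles with NaOH stripping and re-annealing in between. The fluorescence ratio is summed target-cycle over summed buffer-cycle Cy3 intensity per cluster, averaged per switch-domain sequence, excluding clusters outside 100-1000 RFU.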
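Further: ATP exposure 15 min at 22 °C before imaging.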

Row | Sequence | switch fluorescence ratio
1 | GCAAGGGAGC | 1.02
2 | CGCTGCAAGA | 2.23
3 | TACATTCGTA | 1.02
4 | GTTGATTGCG | 1.02
5 | TAAAACTCTT | 1.01
6 | GGGGCCCCTT | 1.02
7 | AATTAGGAAC | 0.976
8 | TGCTAAAAGT | 1.01
9 | AAATCTATGG | 1
10 | ATGGTGCGAC | 1.06
11 | ACAGGCACCT | 1.25
12 | AGACCTGCAG | 1.04
13 | GGTGTAGTAG | 1.03
14 | TCCGCTAAAA | 1.08
15 | CGTTCTTGG | 0.989
16 | GGAACGTTTT | 1.02
17 | CGGTAACAAT | 1.14
18 | CTGATTCGAC | 1.03
19 | GCTGATTATT | 0.998
20 | TCCTTTAGGA | 1.02
21 | GCTTTATTTC | 1
22 | ACAATTGGCT | 1.04
23 | GTGAGTCGTG | 1
24 | ACGTAGGTCT | 1.01
25 | CATAGTTGAA | 0.986

Row | Sequence | switch fluorescence ratio
26 | ATAAAAGTTT | 0.991
27 | CAGGTGTTTT | 1.48
28 | TCTTATCTAA | 0.964
29 | GGACGGTATA | 1.08
30 | AAGTCCTAGT | 0.953
31 | TCTATAATGA | 0.966
32 | GGTTGATTCT | 0.981
33 | TGAAGTAGTG | 0.975
34 | TACCTGGGTT | 1.03
35 | CGATCAGGTA | 0.972
36 | TTCCAGACGG | 1.03
37 | GGACCCTTTT | 1.01
38 | TGTAGGGCGG | 1.01
39 | ACGGGTAGTT | 1.01
40 | GCAGACCGGT | 1.04
41 | ATGGTTCAGT | 1.01
42 | GTCGCAAGTC | 1.77
43 | AGTTCTATAG | 0.967
44 | TAGAGGTCTC | 1.03
45 | CATAGCGAA | 1.11
46 | CCGGGGTCTT | 1.03
47 | TAATTCTGTA | 1.05
48 | CAATTTGGGA | 0.958
49 | CGTATGTATG | 0.988
50 | AAATTAGCAT | 1.03

Row | Sequence | switch fluorescence ratio
51 | TGACCGTGGC | 1.09
52 | TAGGCACACT | 1.08
53 | TGAGGTAAGA | 0.988
54 | ACGGTCGGAC | 1.06
55 | CTAGGCGCG | 0.955
56 | TACCGGTACT | 1.07
57 | AATAGGTGCT | 1.08
58 | AAGTTTCCAG | 1.01
59 | GGTGCGTGGA | 0.967
60 | CGCGGTTCAT | 0.986
61 | GGTGGTCTGG | 0.944
62 | ATTTGATGAT | 1.01
63 | TGAAAAAGCG | 0.965
64 | GTTCAGGTTG | 1.07
65 | CACTCAAACT | 1.12
66 | GTGGTGCATC | 1.01
67 | AGTATTAAGT | 0.971
68 | TTATGAGAGG | 0.996
69 | TAATCTGTTT | 0.991
70 | CGCTTTTTAA | 1.06
71 | CAGTCGGGG | 1
72 | TCAATCACAT | 1.01
73 | GAGTATGTGA | 0.964
74 | CGCTGCTGTT | 1.02
75 | GCCAGTTACC | 1.06

Row | Sequence | switch fluorescence ratio
76 | TTAATGGAGT | 0.987
77 | AAGACGCGCT | 1.02
78 | AATATGAGGA | 1.02
79 | GGTCCGTTTA | 1.02
80 | TCTTCTGTAC | 1.02
81 | TGCGGGGTTC | 0.989
82 | ACACTTCACG | 1.46
83 | ATGATTTGCT | 0.98
84 | CGATTAATCG | 0.993
85 | TCACGTTTCC | 1.13
86 | ATTCTATTGG | 1
87 | CTAGGTCCGA | 1
88 | ATTTGATTGC | 1.01
89 | TTCAACGCCG | 0.946
90 | TAATACAGCG | 1.04
91 | ATTTGACGTG | 1.06
92 | CAATTTATAA | 0.974
93 | TTTGAAATCT | 1.06
94 | TATGAATGTA | 1
95 | CTAAAGATAG | 0.988
96 | CAAGCTCTCT | 1.02
97 | CGGGCTAGCG | 0.979
98 | CGAGCTCCTA | 1.08
99 | ACAGGGGGTT | 0.977
100 | TTTAGTTGTC | 0.923

Row | Sequence | switch fluorescence ratio
101 | GCGTTTATTT | 1.02
102 | AATTCTTTAC | 1.03
103 | CAAGGGGCTT | 0.991
104 | ATTCGGCTGT | 0.991
105 | TGTATGGG | 1.01
106 | GCCGCGGCA | 1.02
107 | CTAATTGGGG | 0.984
108 | GGTTTCATTT | 0.996
109 | ATGCCTTTGG | 0.984
110 | TCTTAAATGG | 0.99
111 | CGGCGTCATG | 1.05
112 | CCGTGGGTGG | 0.967
113 | GGCAGCGGTG | 0.904
114 | TTCACTGTCA | 1.07
115 | ACATTCGGGG | 0.964
116 | ACGTGGCATG | 1.01
117 | TTGGTAGGTT | 0.975
118 | TCTTCTGTCT | 0.961
119 | GCACCAAACG | 1.31
120 | GAGACCAGTG | 1.04
121 | CTCATCTAGC | 1
122 | CTTCGGTAGG | 1
123 | CCTTACAACA | 1.04
124 | GGATTGCGTT | 0.968
125 | GCGTAATGTG | 1.02

Row | Sequence | switch fluorescence ratio
126 | TCCGTCTGGT | 0.996
127 | CTTGTGTTTG | 1.04
128 | AGCTATGAAA | 1.06
129 | ACCTTGTCTC | 1.23
130 | AGTGTGAGCG | 1.02
131 | ATAGCTCGTC | 1.03
132 | ATGCATAAGT | 1.01
133 | TTGGAACAGT | 0.993
134 | GGAAAAATAG | 1.01
135 | GCGAGACGGG | 1.04
136 | TCTGGATCGG | 1.04
137 | CAAAGTGCA | 1
138 | GTTTGCGCGG | 0.972
139 | AAAGGCAATT | 1.07
140 | CCAAGTAGGT | 0.956
141 | GAGAAGTTGG | 0.979
142 | TAGGCTCTCT | 1.02
143 | GATAAAAGTG | 0.946
144 | CCGAAGTCTG | 2.61
145 | TATGGCATTG | 1
146 | TTTTTACGAT | 1.04
147 | GATTTAGCTT | 1.04
148 | CTCGCTCGGC | 1.22
149 | TATTCTACGA | 1.04
150 | TGCTTGTTCC | 1.04

Row | Sequence | switch fluorescence ratio
151 | TGGTAGGCAG | 0.979
152 | CATTTAGTAC | 0.988
153 | GAGTAGTAAC | 0.967
154 | AACCTCGC | 1.17
155 | GGTGACGAA | 0.981
156 | TTGAGAAATC | 1.05
157 | CAAGAATTGC | 0.996
158 | AAGTACGGGC | 1.15
159 | GAAGCAAAGT | 0.997
160 | TGCCACTCCG | 1.18
161 | AACGGCCTAA | 1.01
162 | CCTGTCTGGT | 0.94
163 | TTGAGACCGC | 1.08
164 | TATGTTCAAA | 0.959
165 | AAAAACGATG | 1.03
166 | TACCCCCGGG | 1.18
167 | TCAACGGGCT | 1.06
168 | AGGTACAGTT | 1.01
169 | GCGTGTTATA | 1.12
170 | ATCTACGCCT | 1.22
171 | ACATTATTAG | 1.05
172 | TCCCCATAAC | 1.38
173 | GGGTAGCCTC | 0.992
174 | TCTGTCAAC | 1.04
175 | GGGCGGGTT | 0.934

Row | Sequence | switch fluorescence ratio
176 | GCCTTTAACT | 1.01
177 | CGGAGATGGA | 1.01
178 | AGTCTCGATC | 0.994
179 | GGAGGCACTA | 0.993
180 | CTTGTCTCGC | 1.03
181 | GGCGTCCGAA | 1.07
182 | TATTTTCATC | 1.04
183 | GGGCTCGTCT | 1.01
184 | TATATTCTGC | 0.964
185 | ACGCCGGTTT | 1.01
186 | GGTGTGGACC | 0.976
187 | CTTTGGTCTA | 0.971
188 | GGGAGCCGCG | 1.03
189 | TGAAGGTCGA | 1.02
190 | AACATCTTGG | 1.01
191 | TGATAATAAG | 1.02
192 | ACGTTTCTCC | 1.64
193 | ATGTAAATTC | 1.01
194 | TCCAAGAAGA | 1.01
195 | ACACAGACAG | 1.12
196 | GAACCGGGGT | 0.924
197 | CAAGGGATCA | 0.957
198 | CATTAGGTA | 1.01
199 | GCTTTGTCAA | 0.983
200 | TGATACCGGT | 1.11
